In PubChem BioAssay AID1030 (National Center for Advancing Translational Sciences (NCATS), 2008):
The campaign covered roughly 220,000 compounds. About 16,000 (7.3%) were called active. Inconclusive means that the source gave no clear call. Such entries were picked first, then a sample of the others. Calls come from the whole dose curve; as a rule, active = well fitted inhibition curve with a large enough effect (not every such curve was filed as active); inconclusive = small, poorly fitted or top-dose-only effect, or another doubt; inactive = no such curve, though single readings can be large or run the other way. No potency is given beside an inconclusive call; the fits are too rough.

Biological target: Aldehyde dehydrogenase 1A1 (Homo sapiens) (UniProt P00352)
Sequence of UniProt P00352 (P00352 whole entry, looked up): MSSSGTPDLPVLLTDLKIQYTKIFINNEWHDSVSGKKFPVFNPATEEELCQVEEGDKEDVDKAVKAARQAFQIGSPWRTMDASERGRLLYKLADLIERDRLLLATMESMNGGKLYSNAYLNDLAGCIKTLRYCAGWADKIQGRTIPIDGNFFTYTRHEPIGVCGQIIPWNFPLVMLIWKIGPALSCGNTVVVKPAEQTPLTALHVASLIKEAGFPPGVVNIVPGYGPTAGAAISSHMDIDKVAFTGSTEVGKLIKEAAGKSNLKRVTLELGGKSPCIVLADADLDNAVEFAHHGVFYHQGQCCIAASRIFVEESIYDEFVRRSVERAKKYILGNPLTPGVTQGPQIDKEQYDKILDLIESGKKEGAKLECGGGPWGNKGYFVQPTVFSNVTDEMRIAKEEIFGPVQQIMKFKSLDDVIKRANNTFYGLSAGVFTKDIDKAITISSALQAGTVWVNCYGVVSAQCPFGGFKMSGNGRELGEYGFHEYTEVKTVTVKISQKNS
Experiment: qHTS Assay for Inhibitors of Aldehyde Dehydrogenase 1 (ALDH1A1);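 for activity, negative = inhibition: plate controls were no enzyme wells and a reference inhibitor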
Conditions: Purified ALDH1A1, NADH fluorescence, propionaldehyde substrate; series mostly up to 75.3 µM; activity, negative = inhibition: at the top concentration
Potency is the fitted concentration of half-maximal effect; tags give direction and shape of the fitted curve.

**Q.** For O=C(CSCc1ccccc1)Nc1cccc(C(=O)Nc2ccccc2C(=O)O)c1, which “activity, negative = inhibition” value is on record?
**A.** The value was inactive: -9.92%.

**Q.** How did the Potency turn out when Cc1cc2n(c(=O)c1C#N)CCCN2c1cccc(Cl)c1 was run?
**A.** Its Potency is inconclusive [inhibitor, single point].

**Q.** CCOC(=O)c1oc2ccccc2c1NC(=O)c1ccccc1OC was tested. Which Potency did it give?
**A.** The Potency was inconclusive [inhibitor, single point].

**Q.** How did the “activity, negative = inhibition” value turn out when CCC(=O)c1ccc(OCC(=O)c2ccc3c(c2)NC(=O)CO3)cc1 was run?
**A.** The value was inactive: 3.54%.

**Q.** With O=C(Nc1cccc2ccccc12)c1onc2c1CCCC2 as the molecule, how does the Potency read?
**A.** The Potency was inconclusive [inhibitor, single point].

**Q.** With Cn1ncc2c(Nc3ccccc3Br)ncnc21 as the molecule, how does the “activity, negative = inhibition” value read?
**A.** Its value is inactive: -4.08%.

**Q.** For CC(C)c1cc(N2CCC(=O)NC2=O)cc(C(=O)O)c1O, which Potency is on record?
**A.** The Potency was inconclusive [inhibitor, partial curve].

**Q.** How did the Potency turn out when Cc1ccc(OC(C)C(=O)N2CCCc3ccccc32)cc1 (stereo not given) was run?
**A.** Its Potency is inconclusive [inhibitor, single point].

**Q.** For CN(C)c1nc(N)nc(CSc2n[nH]c(-c3ccccc3)n2)n1, which “activity, negative = inhibition” value is on record?
**A.** Its value is inactive: 8.67%.

**Q.** COc1ccc(-c2cc(C(F)(F)F)nc(SCC(=O)NCCCN3CCOCC3)n2)cc1 was tested. Which Potency did it give?
**A.** The Potency was inconclusive [inhibitor, partial curve].

**Q.** For CCCCc1ccc(CC(=O)O)cc1, which Potency is on record?
**A.** The Potency was active: 14.1 µM.

**Q.** With CCOCCCNC(=O)c1cc(=O)n(Cc2cccc(C)c2)c2ccccc12 as the molecule, how does the Potency read?
**A.** The Potency was inconclusive [inhibitor, single point].

**Q.** COc1ccc(N/C=C(\C#N)c2ccc(OCCCF)cc2)cc1 was tested. Which Potency did it give?
**A.** The Potency was inconclusive [inhibitor, single point].

**Q.** With CCOc1ccc(S(=O)(=O)NCc2ccc(C)cc2)c2cccnc12 as the molecule, how does the Potency read?
**A.** The Potency was inconclusive [inhibitor, single point].

**Q.** Which Potency does the source give for O=C(c1cc2cc(Br)cc(Br)c2oc1=O)N1CCCc2ccccc21 here?
**A.** The Potency was inconclusive [inhibitor, full curve, poor fit].

**Q.** With NC1=NN=C(N2N=C(c3ccccc3)CC2(O)C(F)(F)F)n2ncnc2C1 (stereo not given) as the molecule, how does the Potency read?
**A.** Its Potency is inconclusive [inhibitor, single point].

**Q.** O=C(c1cnc(N2CCN(c3ncccn3)CC2)c2ccccc12)N1CCN(c2ncccn2)CC1 was tested. Which Potency did it give?
**A.** Its Potency is inconclusive [inhibitor, partial curve].

**Q.** Which “activity, negative = inhibition” value does the source give for CN(C(=O)c1ccccc1C(=O)OCC(=O)NC(=O)NC(C)(C)C)C1CCCCC1 here?
**A.** Its value is inactive: 5.55%.

**Q.** With CS(=O)(=O)N1CCC2(CCCN(c3ccccn3)C2)CC1 as the molecule, how does the Potency read?
**A.** Its Potency is inconclusive [inhibitor, partial curve].

**Q.** Which Potency does the source give for COc1ccc(C(=O)NC(=S)Nc2cc(C)ccn2)cc1[N+](=O)[O-] here?
**A.** Its Potency is active: 0.316 µM.
